About 65 (0.1%) of roughly 45,000 compounds were called active. Calls come from the whole dose curve; as a rule, active = well fitted activation curve with a large enough effect; inconclusive = small, poorly fitted or top-dose-only effect; inactive = no such curve, though single readings can be large or run the other way. The list shows a part of the results.
Each compound was assayed against Galactocerebrosidase (Homo sapiens) (UniProt P54803) (assay: A Novel Cell-Based Assay to Identify Small Molecules for B -Galactocerebrosidase). Conditions: 145M-Twi-hGALC-G270D cells (Twitcher mouse brain line with human GALC G270D), HMU-beta-Gal fluorescence, 48 h; series mostly up to 57.5 µM; activation: at the top concentration.
How it was run: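 Live 145M-Twi cells (Twitcher mouse brain-derived, GALC-null) stably expressing human GALC-G270D, with a wild-type GALC line, were compound-treated. Residual GALC activity was then read as fluorescence from 0.1 mM final HMU-β-gal at pH 5.2; higher signal means activation.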
Note: 0% is about no effect; nearly all actives have a fitted effect of over 65% in size.

Chain of UniProt P54803 (P54803 whole entry, looked up): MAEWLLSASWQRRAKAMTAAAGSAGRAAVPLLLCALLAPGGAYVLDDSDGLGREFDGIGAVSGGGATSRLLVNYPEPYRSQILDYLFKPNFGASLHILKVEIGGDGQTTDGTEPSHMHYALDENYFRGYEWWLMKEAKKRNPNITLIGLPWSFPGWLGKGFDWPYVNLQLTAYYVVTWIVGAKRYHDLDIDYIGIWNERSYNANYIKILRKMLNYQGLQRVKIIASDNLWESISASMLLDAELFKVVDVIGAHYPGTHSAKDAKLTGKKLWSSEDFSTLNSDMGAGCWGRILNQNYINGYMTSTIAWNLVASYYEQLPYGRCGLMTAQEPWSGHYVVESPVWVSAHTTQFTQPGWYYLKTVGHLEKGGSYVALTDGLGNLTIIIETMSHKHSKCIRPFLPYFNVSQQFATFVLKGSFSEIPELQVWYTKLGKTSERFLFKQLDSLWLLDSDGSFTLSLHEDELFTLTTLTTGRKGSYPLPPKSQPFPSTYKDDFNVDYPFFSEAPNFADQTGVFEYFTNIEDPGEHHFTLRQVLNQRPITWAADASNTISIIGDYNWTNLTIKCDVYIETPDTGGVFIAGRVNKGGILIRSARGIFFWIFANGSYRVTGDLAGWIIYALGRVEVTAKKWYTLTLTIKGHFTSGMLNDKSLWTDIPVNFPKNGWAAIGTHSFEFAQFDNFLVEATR

Compound	activation
CC(C)(C)OC(=O)N1CCC(c2c(C(=O)N3CCN(C4CCCCC4)CC3)cnn2-c2cccc(Cl)c2)CC1	inactive: -17.1%
CCN1C(=O)C(O)(c2c(C)[nH]c3ccccc23)c2ccccc21 (stereo not drawn)	inactive: -22.3%
COc1ccc(NC(=O)CSC2=Nc3ccccc3C3=NC(CCC(=O)NCCc4ccccc4)C(=O)N23)cc1 (stereo not drawn)	inactive: -5.97%
Cc1oc2ncn(C)c(=O)c2c1C(=O)N(C)c1ccccc1F	inactive: -2.79%
COC(=O)c1ccc(NS(=O)(=O)c2ccc3[nH]c4c(c3c2)CCCCC4)cc1	inactive: -27.6%
O=C(NCc1ccccc1Cl)C1CCCN(c2nc3ccccc3n3cccc23)C1 (stereo not drawn)	inactive: -16.9%
Cc1ccc(C)c(S(=O)(=O)NCC(c2ccc(N(C)C)cc2)N2CCOCC2)c1 (stereo not drawn)	inactive: -9.78%
Cc1cccc(-n2cc(-c3ccccc3)nc2SCC(=O)Nc2ccccc2Cl)c1	inactive: -7.32%
Cc1oc2ncn(CC(C)C)c(=O)c2c1C(=O)Nc1ccc(Cl)cn1	inactive: -14.4%
Cc1ccc(C)c(NC(=O)C(C)N(c2ccccc2)S(C)(=O)=O)c1 (stereo not drawn)	inactive: -5.69%
CC1=C(C(=O)Nc2ccc(C)cc2C)C(c2ccc(C(C)C)cc2)n2nc(C(F)(F)F)nc2N1 (stereo not drawn)	inactive: -23.4%
COc1ccc(-n2c(-c3ccc(Cl)cc3)cc3c2CC(C)(C)CC3=O)c(OC)c1	inactive: -17.9%
CCOC(=O)c1sc(NC(=O)c2nc(SC)ncc2Cl)c(C(=O)OCC)c1C	inactive: -8.58%
Cc1cccc(OCCn2nnc3sc4c(c3c2=O)CCCC4)c1	inactive: -4.11%
CCOc1ccc(CNCCNC(=O)c2nonc2N)cc1	inactive: 7.94%
CC(C)c1ccc(NS(=O)(=O)c2ccc3[nH]cc(C(=O)NC4CCCCC4)c(=O)c3c2)cc1	inactive: 0.671%
CNC(=O)c1c(NC(=O)c2cc(=O)c3ccccc3o2)sc2c1CCC2	inactive: -22.6%
CCCCNC(=O)CSc1c2c(nc3ccc(Cl)cc13)CCCC2	inactive: -10.8%
COc1ccc(-c2nc3ccccc3s2)cc1NC(=O)c1ccccc1OC	inactive: -3.23%
Cc1cccc(C)c1NC(=O)c1ccc2nc(CCc3ccccc3)oc2c1	inactive: -15.6%
Cc1cccc(NC(=O)c2sc3cccc(Cl)c3c2Cl)c1	inactive: -4.43%
Cc1c(C(=O)Nc2ccc(F)cc2F)nnn1-c1ccccc1Br	inactive: -18.9%
COCCCNC(=O)c1c(C)nn(-c2ccc(F)cc2)c1-n1cccc1	inactive: -2.02%
CC1=C(C(=O)Nc2ccccc2)C(c2ccncc2)n2nc(SCc3ccccc3)nc2N1 (stereo not drawn)	inactive: -11.9%
CC(C)c1ccc(NC(=O)CCS(=O)(=O)c2ccc(Br)s2)cc1	inactive: 9.38%
COc1cccc(-c2cc(C(F)(F)F)nc(NCc3ccc(F)cc3)n2)c1	inactive: -5.26%
Cn1c(=O)c2sccc2n2c(CCCC(=O)Nc3ccc(F)c(F)c3)nnc12	inactive: 0.49%
COc1cccc(-c2nc(S(=O)(=O)c3ccccc3)c(NCc3ccccc3)o2)c1	inactive: -16.5%
